Experimental data published in PubChem BioAssay (Tox21).
The inconclusive results got no clear call from the source; some entries with a clear call stand among them for comparison. For some assays here: Potencies of inconclusive entries are left out as doubtful fits. The source made the active and inactive calls. Unless noted, calls follow the shape of the dose curve; as a rule, active = well fitted curve in the direction sought with a large enough effect in the repeat runs; inconclusive = weak or mixed curves; inactive = no such curve, though single readings can be large; an effect the other way counts as inactive or inconclusive.

Tests used:
[1] = qHTS assay for small molecule agonists of the antioxidant response element (ARE) signaling pathway (AID 743202; active = well fitted activation curve with a large enough effect in the signal ratio in the repeat runs, not every such curve was filed as active; inconclusive = weak or mixed curves, or effect the other way; inactive = no such curve, though single readings can be large or run the other way; the % refers to the signal ratio; also: potency is read from the fitted curve at half-maximal effect); conditions: HepG2 ARE-bla reporter, beta-lactamase FRET, 16 h; activation: at 73.3 µM (top of the series) unless noted
Procedure, shortened: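 Following a 16 h, 37 C exposure of reporter HepG2 cells (ARE-driven beta-lactamase, 2,000 cells/well) to compounds, FRET substrate was applied for 2 h at room temperature and fluorescence intensity recorded.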

[2] = target: Vitamin D3 receptor (Homo sapiens) (UniProt P11473); experiment: qHTS assay to identify small molecule agonists of the vitamin D receptor (VDR) signaling pathway (AID 743222; calls by dose curve; also: potency is read from the fitted curve at half-maximal effect); conditions: HEK293T VDR-UAS-bla, beta-lactamase FRET ratio, 16 h; activation: at 63.5 µM (top of the series) unless noted
Procedure, shortened: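 Cells carrying a VDR-driven beta-lactamase reporter are seeded at 2,000 per well and rested 4 h. Compounds in DMSO are added for 16 h at 37C, and FRET substrate fluorescence is measured after 2 h at room temperature.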

[3] = target: Vitamin D3 receptor (Homo sapiens) (UniProt P11473); experiment: qHTS assay to identify small molecule antagonists of the vitamin D receptor (VDR) signaling pathway (AID 743223; active = well fitted inhibition curve with a large enough effect in the signal ratio in the repeat runs, not every such curve was filed as active; inconclusive = weak or mixed curves, or effect the other way; inactive = no such curve, though single readings can be large or run the other way; the % refers to the signal ratio; also: potency is read from the fitted curve at half-maximal effect; as to activity change, negative = inhibition: % is scaled to controls: 0 for no effect and ±100 for the full control effect); conditions: VDR-UAS-bla HEK293T, beta-lactamase FRET ratio, 16 h
Procedure, shortened: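 Antagonist mode uses 1alpha,25-dihydroxyvitamin D3 at 3 nM final as stimulus. VDR-bla cells receive compounds in DMSO, incubate 16 h at 37C, then a beta-lactamase FRET substrate for 2 h at room temperature before fluorescence measurement.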

[4] = qHTS assay for small molecule activators of the heat shock response signaling pathway - cell viability counter screen (AID 743209); conditions: HSE-bla HeLa viability, CellTiter-Glo luminescence, 5 h; activity change, negative = cytotoxicity: at 62.6 µM (top of the series); also: nearly all actives have a fitted effect of over 50% in size; also: potency is read from the fitted curve at half-maximal effect
Procedure, shortened: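 Cytotoxicity counter screen run in parallel with the HSE beta-lactamase reporter, using the same wells. HeLa HSE-bla cells received compound for 5 h at 37 C; ATP-based CellTiter-Glo luminescence was measured after 30 min at room temperature.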

[5] = qHTS assay to identify small molecule antagonists of the peroxisome proliferator-activated receptor delta (PPARd) signaling pathway - cell viability counter screen (AID 743213); conditions: PPARd-bla HEK293H viability, CellTiter-Glo luminescence, 17 h; viability change, negative = cytotoxic: at 62 µM (top of the series) unless noted; also: nearly all actives have a fitted effect of over 50% in size; also: potency is read from the fitted curve at half-maximal effect
Procedure, shortened: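 HEK293H PPARd UAS-bla cells, 5 h pre-incubation, compound + L165041 300 nM final, 17 h 37 C; B/G FRET substrate 2 h RT; then CellTiter-Glo 30 min RT, luminescence.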

[6] = target: Peroxisome proliferator-activated receptor delta (Homo sapiens) (UniProt Q03181); experiment: qHTS assay to identify small molecule antagonists of the peroxisome proliferator-activated receptor delta (PPARd) signaling pathway (AID 743215; active = well fitted inhibition curve with a large enough effect in the signal ratio in the repeat runs, not every such curve was filed as active; inconclusive = weak or mixed curves, or effect the other way; inactive = no such curve, though single readings can be large or run the other way; the % refers to the signal ratio;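 also: cells stimulated with agonist L165041 at 300 nM final during compound exposure; % is scaled to controls: 0 for no effect and ±100 for the full control effect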); conditions: HEK293H PPARd-UAS-bla, beta-lactamase FRET ratio, antagonist, 17 h; ratio activity, negative = inhibition: at 62 µM (top of the series) unless noted
Procedure, shortened: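 Cells: HEK293H with a UAS-driven beta-lactamase reporter responsive to PPARd. Compounds were co-added with L165041 (300 nM, final) and incubated 17 h at 37 C before a 2 h room-temperature FRET substrate step and fluorescence reading.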

[7] = target: Bile acid receptor (Homo sapiens) (UniProt Q96RI1); experiment: qHTS assay to identify small molecule antagonists of the farnesoid-X-receptor (FXR) signaling pathway (AID 743217; active = well fitted inhibition curve with a large enough effect in the signal ratio in the repeat runs, not every such curve was filed as active; inconclusive = weak or mixed curves, or effect the other way; inactive = no such curve, though single readings can be large or run the other way; the % refers to the signal ratio; also: potency is read from the fitted curve at half-maximal effect); conditions: HEK293T FXR-UAS-bla, beta-lactamase ratio, CDCA-stimulated, 16 h; activity change, negative = inhibition: at 62.6 µM (top of the series) unless noted
Procedure, shortened: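 Cells carrying a UAS-driven beta-lactamase reporter (GeneBLAzer FXR-UAS-bla HEK 293T) were plated and rested 5 h at 37 °C. Compounds in DMSO were added alongside chenodeoxycholic acid agonist at 50 uM final and left 16 h at 37 °C before FRET substrate readout.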

[8] = qHTS assay to identify small molecule agonists of the farnesoid-X-receptor (FXR) signaling pathway - cell viability counter screen (AID 743218); conditions: FXR-bla HEK293T viability, CellTiter-Glo luminescence, 16 h; viability change, negative = cytotoxic: at 62.6 µM (top of the series) unless noted; also: nearly all actives have a fitted effect of over 45% in size; also: potency is read from the fitted curve at half-maximal effect
Procedure, shortened: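 Cells were seeded, left 5 h at 37 C and 5% CO2, then dosed with compound in DMSO for 16 h. After the beta-lactamase FRET read, CellTiter-Glo was added and luminescence measured 30 min later.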

[9] = qHTS assay for small molecule activators of the heat shock response signaling pathway (AID 743210; active = well fitted activation curve with a large enough effect in the signal ratio in the repeat runs, with a control signal flat, not every such curve was filed as active; inconclusive = weak or mixed curves; the % refers to the signal ratio; also: potency is read from the fitted curve at half-maximal effect); conditions: HeLa HSE-bla reporter, beta-lactamase ratio, 5 h; activation: at 62.6 µM (top of the series)
Procedure, shortened: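 Heat shock element–beta-lactamase HeLa reporter cells; qHTS with compounds for 5 h at 37 C; detection by FRET substrate fluorescence after 2.5 h at RT.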

[10] = qHTS assay to identify small molecule agonists of the peroxisome proliferator-activated receptor delta (PPARd) signaling pathway - cell viability counter screen (AID 743211); conditions: PPARd-bla HEK293H viability, CellTiter-Glo luminescence, 17 h; activity change, negative = cytotoxicity: at 62.6 µM (top of the series); also: nearly all actives have a fitted effect of over 55% in size; also: potency is read from the fitted curve at half-maximal effect
Procedure, shortened: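 HEK293H PPARd-bla, 3000 cells/well; 5 h preincubation 37C/5% CO2; cpd in DMSO, 17 h 37C; B/G FRET substrate 2 h RT; CellTiter-Glo 30 min RT, luminescence.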

[11] = qHTS assay to identify small molecule antagonists of the farnesoid-X-receptor (FXR) signaling pathway - cell viability counter screen (AID 743221; active = well fitted cell-killing curve with a large enough effect in the repeat runs, not every such curve was filed as active; inconclusive = weak or mixed curves, or effect the other way; inactive = no such curve, though single readings can be large or run the other way; also: % is scaled to controls: 0 for no effect and ±100 for the full control effect; nearly all actives have a fitted effect of over 50% in size); conditions: FXR-bla HEK293T viability, CellTiter-Glo luminescence, 16 h; activity change, negative = cytotoxicity: at 62.6 µM (top of the series)
Procedure, shortened: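 Luminescence from CellTiter-Glo measures cytotoxicity in GeneBLAzer FXR-UAS-bla HEK 293T cells. Cells were exposed to compounds with 50 uM chenodeoxycholic acid (final) for 16 h at 37 C, in wells also used for the reporter readout.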

[12] = target: Peroxisome proliferator-activated receptor delta (Homo sapiens) (UniProt Q03181); experiment: qHTS assay to identify small molecule agonists of the peroxisome proliferator-activated receptor delta (PPARd) signaling pathway (AID 743212; calls by dose curve; also: % is scaled to controls: 0 for no effect and ±100 for the full control effect); conditions: HEK293H PPARd-UAS-bla, beta-lactamase FRET ratio, 17 h; activation: at 62.6 µM (top of the series) unless noted
Procedure, shortened: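 Beta-lactamase reporter read by fluorescence (LiveBLAzer B/G FRET, 2 h, room temperature). Test agents, in DMSO, incubated at 37 C with PPARd-bla HEK293H cells.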

[13] = target: Bile acid receptor (Homo sapiens) (UniProt Q96RI1); experiment: qHTS assay to identify small molecule agonists of the farnesoid-X-receptor (FXR) signaling pathway (AID 743220; active = well fitted activation curve with a large enough effect in the signal ratio in the repeat runs, not every such curve was filed as active; inconclusive = weak or mixed curves, or effect the other way; the % refers to the signal ratio; also: % is scaled to controls: 0 for no effect and ±100 for the full control effect); conditions: HEK293T FXR-UAS-bla, beta-lactamase FRET ratio, 16 h; activation: at 62.6 µM (top of the series) unless noted
Procedure, shortened: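 FXR-UAS-bla HEK 293T cells carrying a UAS-driven beta-lactamase reporter were plated for 5 h at 37C/5% CO2, then exposed to DMSO-dissolved Tox21 10K compounds for 16 h at 37C. A LiveBLAzer B/G FRET substrate was loaded for 2 h at room temperature before fluorescence reading.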

[14] = activity change, negative = inhibition: at 61 µM (top of the series) unless noted
Tags tell the direction and shape of the fitted curve or compound fluorescence and quenching.

Sequence of UniProt Q96RI1 (Q96RI1 whole entry, looked up): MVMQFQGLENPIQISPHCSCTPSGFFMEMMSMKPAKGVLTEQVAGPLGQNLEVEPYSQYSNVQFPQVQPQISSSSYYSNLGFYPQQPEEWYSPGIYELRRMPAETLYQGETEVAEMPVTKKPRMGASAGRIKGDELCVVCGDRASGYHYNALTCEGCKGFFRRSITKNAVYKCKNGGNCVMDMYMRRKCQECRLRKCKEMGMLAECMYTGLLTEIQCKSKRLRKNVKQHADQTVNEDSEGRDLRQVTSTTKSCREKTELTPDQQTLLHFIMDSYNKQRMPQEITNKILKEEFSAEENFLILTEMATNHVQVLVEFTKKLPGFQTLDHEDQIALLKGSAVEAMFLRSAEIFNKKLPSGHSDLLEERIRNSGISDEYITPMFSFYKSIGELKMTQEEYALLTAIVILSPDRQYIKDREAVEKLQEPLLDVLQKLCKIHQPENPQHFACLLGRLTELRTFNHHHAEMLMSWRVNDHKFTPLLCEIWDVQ
Sequence of UniProt P11473 (P11473 whole entry, looked up): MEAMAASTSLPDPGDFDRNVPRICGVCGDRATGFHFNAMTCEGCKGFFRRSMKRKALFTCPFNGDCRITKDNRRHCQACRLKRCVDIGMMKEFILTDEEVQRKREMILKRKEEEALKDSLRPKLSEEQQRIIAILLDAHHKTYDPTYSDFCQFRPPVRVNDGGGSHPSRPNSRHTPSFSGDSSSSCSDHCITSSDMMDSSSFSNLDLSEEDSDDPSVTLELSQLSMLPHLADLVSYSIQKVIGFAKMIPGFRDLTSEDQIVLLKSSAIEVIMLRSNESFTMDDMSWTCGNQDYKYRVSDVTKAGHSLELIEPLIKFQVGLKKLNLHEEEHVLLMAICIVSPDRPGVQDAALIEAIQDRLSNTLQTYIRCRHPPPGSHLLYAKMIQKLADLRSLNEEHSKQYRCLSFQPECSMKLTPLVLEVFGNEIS
Sequence of UniProt Q03181 (Q03181 whole entry, looked up): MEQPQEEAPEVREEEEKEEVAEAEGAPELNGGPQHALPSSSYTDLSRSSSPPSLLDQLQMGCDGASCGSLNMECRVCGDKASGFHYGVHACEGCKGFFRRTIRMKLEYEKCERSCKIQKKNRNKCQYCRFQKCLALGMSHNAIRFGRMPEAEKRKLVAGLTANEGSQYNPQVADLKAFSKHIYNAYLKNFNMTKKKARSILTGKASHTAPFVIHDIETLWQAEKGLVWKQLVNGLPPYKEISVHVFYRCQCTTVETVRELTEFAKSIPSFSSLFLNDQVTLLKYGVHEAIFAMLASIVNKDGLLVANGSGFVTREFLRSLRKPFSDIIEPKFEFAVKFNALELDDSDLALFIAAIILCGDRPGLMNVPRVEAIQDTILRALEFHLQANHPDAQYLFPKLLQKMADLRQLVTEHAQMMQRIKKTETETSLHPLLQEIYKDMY

Which Potency [1] does the source give for `CCOC(=O)N1CCC(n2c(=O)[nH]c3cc(Cl)ccc32)CC1` here?
Its Potency is active: 6.68 µM.

What about the Potency [2] of the same compound?
Its Potency is inconclusive.

And the Potency [3, 14]?
Its Potency is “inactive”.

Which results are given for `O=C1c2ccccc2C(=O)N1CCl`?
Potency [4]: inactive; Potency [2]: inactive

What does the source list for `CCCC(C)C(=O)O` (stereo unspecified)?
Potency [4]: inconclusive [rising, full curve, poor fit]; Potency [5]: inconclusive [cytotoxic, single point]; ratio activity, negative = inhibition [6]: inconclusive: -2.48%; Potency [7]: inactive; Potency [8]: inactive; Potency [3, 14]: inactive

With `CC(=O)CC(C)(C)C1CCCCC1` as the compound, how does the Potency [9] read?
The Potency was “inactive”.

What does the source list for `CCCCOCC(C)OCC(C)O` (stereo unspecified)?
Potency [9]: inactive; Potency [5]: inconclusive [cytotoxic, full curve, poor fit]

With `COC(=O)c1ccc(C(=O)OC)c(C(=O)OC)c1` as the compound, how does the Potency [4] read?
The Potency was “inactive”.

And the Potency [8]?
Its Potency is inconclusive [rising, full curve, poor fit].

For `CCO[Si](C)(OCC)OCC`, which Potency [9] is on record?
The Potency was “inactive”.

And the Potency [5]?
The Potency was inconclusive [cytotoxic, single point].

What about the viability change, negative = cytotoxic [8] of the same compound?
Its viability change, negative = cytotoxic is inconclusive: 35.4%.

What does the source list for `CCC(C)n1ncn(-c2ccc(N3CCN(c4ccc(OC[C@H]5CO[C@](Cn6cncn6)(c6ccc(Cl)cc6Cl)O5)cc4)CC3)cc2)c1=O` (stereo partly specified)?
Potency [9]: inconclusive; Potency [10]: inconclusive [cytotoxic, full curve]; Potency [5]: active: 2.11 µM; Potency [8]: inconclusive [cytotoxic, partial curve]; Potency [11]: inactive; Potency [3, 14]: inactive

For `CCCCCCN`, which Potency [9] is on record?
Its Potency is inconclusive [activator].

With `CCN(CC)C(=O)N1CCN(C)CC1` as the compound, how does the Potency [4] read?
The Potency was inconclusive [cytotoxic, partial curve, poor fit].

What about the Potency [8] of the same compound?
Its Potency is inconclusive [rising, single point].

What does the source list for `CN(C)c1ccc(C=O)cc1`?
Potency [1]: inconclusive [rising, partial curve]; Potency [3, 14]: inconclusive [activator, single point]

With `CCCCOC(=O)CCCCCCCCC(=O)OCCCC` as the compound, how does the Potency [4] read?
Its Potency is “inactive”.

What about the Potency [9] of the same compound?
Its Potency is “inactive”.

What about the Potency [8] of the same compound?
Its Potency is inconclusive [rising, partial curve].

What about the Potency [3, 14] of the same compound?
The Potency was “inactive”.

Which Potency [1] does the source give for `Cc1nc2n(c(=O)c1CCN1CCC(c3noc4cc(F)ccc34)CC1)CCCC2` here?
Its Potency is inconclusive [rising, partial curve].

And the activity change, negative = inhibition [3, 14]?
The activity change, negative = inhibition was inconclusive: 30.1% [activator].

Which Potency [6] does the source give for `O=Cc1ccc(Cl)c(Cl)c1` here?
The Potency was “inactive”.

What does the source list for `O=[N+]([O-])c1cccc(I)c1`?
Potency [10]: inactive; Potency [12]: inactive; Potency [5]: inconclusive [cytotoxic, single point]; Potency [6]: inactive; Potency [2]: inactive; activity change, negative = inhibition [3, 14]: inconclusive: -0.0636%

With `C=C(C)C(=O)OCCCCCCOC(=O)C(=C)C` as the compound, how does the Potency [3, 14] read?
The Potency was “inactive”.

For `C=C(C)C(=O)OC(C)C`, which Potency [10] is on record?
The Potency was “inactive”.

What about the Potency [8] of the same compound?
Its Potency is inconclusive [rising, full curve].

For `CCCC(CC)c1ccccc1` (stereo unspecified), which Potency [3, 14] is on record?
Its Potency is “inactive”.

Which Potency [12] does the source give for `Nc1nnnn1-c1ccccc1` here?
Its Potency is “inactive”.

Which results are given for `CC(C)c1ccc2ncccc2c1`?
Potency [10]: inconclusive [cytotoxic, full curve, poor fit]; Potency [6]: inactive

Which Potency [12] does the source give for `COc1cc(S(N)(=O)=O)cc(C(=O)O)c1OC` here?
The Potency was “inactive”.

And the Potency [6]?
Its Potency is “inactive”.

What about the Potency [2] of the same compound?
The Potency was “inactive”.

What about the Potency [3, 14] of the same compound?
The Potency was “inactive”.

Which results are given for `Cc1cc(C)cc(OCC2CNC(=O)O2)c1` (stereo unspecified)?
ratio activity, negative = inhibition [6]: inconclusive: 4.93%; Potency [13]: inactive

With `CCC(C)c1ccccc1O` (stereo unspecified) as the compound, how does the Potency [8] read?
Its Potency is “inactive”.

And the activity change, negative = inhibition [3, 14]?
Its activity change, negative = inhibition is inconclusive: 15.2%.

Which activity change, negative = inhibition ([3]; at 61 µM (top of the series)) does the source give for `c1ccncc1` here?
Its activity change, negative = inhibition is inconclusive: 11.1%.

And the activity change, negative = inhibition ([3]; at 78.8 µM (top of the series))?
Its activity change, negative = inhibition is inconclusive: 22%.

Which results are given for `OCc1cccnc1`?
Potency [10]: inconclusive [rising, full curve, poor fit]; Potency [5]: inconclusive [cytotoxic, single point]

For `C[C@H](CS)C(=O)N1CCC[C@H]1C(=O)O`, which Potency [5] is on record?
The Potency was “inactive”.

For `Cc1cc(C(=C2C=CC(=Nc3ccc(S(=O)(=O)O)cc3S(=O)(=O)O)C=C2)c2ccc(Nc3ccc(S(=O)(=O)O)cc3)cc2)ccc1N`, which Potency [8] is on record?
The Potency was inconclusive [cytotoxic, partial curve, poor fit].

With `O=C(O)C(c1ccc(Cl)cc1)c1ccc(Cl)cc1` as the compound, how does the Potency [5] read?
Its Potency is “inactive”.

For `COc1ccc(-c2nc3ccc(C4=NNC(=O)CC4C)cc3[nH]2)cc1` (stereo unspecified), which Potency [10] is on record?
The Potency was inconclusive [cytotoxic, single point].

What about the Potency [5] of the same compound?
Its Potency is inconclusive [cytotoxic, full curve, poor fit].

And the Potency [7]?
The Potency was active: 29.8 µM.

And the Potency [8]?
Its Potency is inconclusive [cytotoxic, partial curve, poor fit].

For `O=C(C(=O)c1ccccc1)c1ccccc1`, which Potency [8] is on record?
Its Potency is inconclusive [rising, partial curve, poor fit].

Which ratio activity, negative = inhibition [6] does the source give for `OCCC(F)(F)C(F)(F)C(F)(F)C(F)(F)C(F)(F)C(F)(F)C(F)(F)C(F)(F)F` here?
Its ratio activity, negative = inhibition is inconclusive: 10.5%.
